Laboratory results published in US20260092099A1 (SPIN THERAPEUTICS, published 2026).
Like-named read-outs stand apart in the source and are kept apart here.

T1: human neutrophil elastase (human, UniProt P08246 30-247, limits assumed)
T1 sequence (looked up): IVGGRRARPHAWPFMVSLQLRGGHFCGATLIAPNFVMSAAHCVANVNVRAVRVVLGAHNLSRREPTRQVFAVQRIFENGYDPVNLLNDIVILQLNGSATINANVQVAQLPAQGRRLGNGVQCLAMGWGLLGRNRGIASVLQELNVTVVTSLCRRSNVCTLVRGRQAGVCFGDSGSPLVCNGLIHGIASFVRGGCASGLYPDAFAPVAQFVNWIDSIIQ

B1: AAT-albumin fusion, base C232S, M351V, M358L with G117F/S283C/P361C (other)
chain: EDPQGDAAQKTDTSHHDQDHPTFNKITPNLAEFAFSLYRQLAHQSNSTNIFFSPVSIATAFAMLSLGTKADTHDEILEGLNFNLTEIPEAQIHEGFQELLRTLNQPDSQLQLTTGNFLFLSEGLKLVDKFLEDVKKLYHSEAFTVNFGDTEEAKKQINDYVEKGTQGKIVDLVKELDRDTVFALVNYIFFKGKWERPFEVKDTEEEDFHVDQVTTVKVPMMKRLGMFNIQHSKKLSSWVLLMKYLGNATAIFFLPDEGKLQHLENELTHDIITKFLENEDRRCASLHLPKLSITGTYDLKSVLGQLGITKVFSNGADLSGVTEEAPLKLSKAVHKAVLTIDEKGTEAAGAVFLEAIPLSICPEVKFNKPFVFLMIEQNTKSPLFMGKVVNPTQKGGSGGSGGSGGSGG[skipping about 600 residues]
B2: AAT-albumin fusion, base C232S, M351V, M358L with F51L/K168C/F189C (other)
chain: EDPQGDAAQKTDTSHHDQDHPTFNKITPNLAEFAFSLYRQLAHQSNSTNILFSPVSIATAFAMLSLGTKADTHDEILEGLNFNLTEIPEAQIHEGFQELLRTLNQPDSQLQLTTGNGLFLSEGLKLVDKFLEDVKKLYHSEAFTVNFGDTEEAKKQINDYVEKGTQGCIVDLVKELDRDTVFALVNYICFKGKWERPFEVKDTEEEDFHVDQVTTVKVPMMKRLGMFNIQHSKKLSSWVLLMKYLGNATAIFFLPDEGKLQHLENELTHDIITKFLENEDRRSASLHLPKLSITGTYDLKSVLGQLGITKVFSNGADLSGVTEEAPLKLSKAVHKAVLTIDEKGTEAAGAVFLEAIPLSIPPEVKFNKPFVFLMIEQNTKSPLFMGKVVNPTQKGGSGGSGGSGGSGG[skipping about 600 residues]
B3: AAT-albumin fusion, base C232S, M351V, M358L with K168C/F189C (other)
chain: EDPQGDAAQKTDTSHHDQDHPTFNKITPNLAEFAFSLYRQLAHQSNSTNIFFSPVSIATAFAMLSLGTKADTHDEILEGLNFNLTEIPEAQIHEGFQELLRTLNQPDSQLQLTTGNGLFLSEGLKLVDKFLEDVKKLYHSEAFTVNFGDTEEAKKQINDYVEKGTQGCIVDLVKELDRDTVFALVNYICFKGKWERPFEVKDTEEEDFHVDQVTTVKVPMMKRLGMFNIQHSKKLSSWVLLMKYLGNATAIFFLPDEGKLQHLENELTHDIITKFLENEDRRSASLHLPKLSITGTYDLKSVLGQLGITKVFSNGADLSGVTEEAPLKLSKAVHKAVLTIDEKGTEAAGAVFLEAIPLSIPPEVKFNKPFVFLMIEQNTKSPLFMGKVVNPTQKGGSGGSGGSGGSGG[skipping about 600 residues]
B4: AAT-albumin fusion, base C232S, M351V, M358L with K331F/K168C/F189C (other)
chain: EDPQGDAAQKTDTSHHDQDHPTFNKITPNLAEFAFSLYRQLAHQSNSTNIFFSPVSIATAFAMLSLGTKADTHDEILEGLNFNLTEIPEAQIHEGFQELLRTLNQPDSQLQLTTGNGLFLSEGLKLVDKFLEDVKKLYHSEAFTVNFGDTEEAKKQINDYVEKGTQGCIVDLVKELDRDTVFALVNYICFKGKWERPFEVKDTEEEDFHVDQVTTVKVPMMKRLGMFNIQHSKKLSSWVLLMKYLGNATAIFFLPDEGKLQHLENELTHDIITKFLENEDRRSASLHLPKLSITGTYDLKSVLGQLGITKVFSNGADLSGVTEEAPLKLSFAVHKAVLTIDEKGTEAAGAVFLEAIPLSIPPEVKFNKPFVFLMIEQNTKSPLFMGKVVNPTQKGGSGGSGGSGGSGG[skipping about 600 residues]
B5: AAT-albumin fusion, base C232S, M351V, M358L with G117F/K168C/F189C (other)
chain: EDPQGDAAQKTDTSHHDQDHPTFNKITPNLAEFAFSLYRQLAHQSNSTNIFFSPVSIATAFAMLSLGTKADTHDEILEGLNFNLTEIPEAQIHEGFQELLRTLNQPDSQLQLTTGNFLFLSEGLKLVDKFLEDVKKLYHSEAFTVNFGDTEEAKKQINDYVEKGTQGCIVDLVKELDRDTVFALVNYICFKGKWERPFEVKDTEEEDFHVDQVTTVKVPMMKRLGMFNIQHSKKLSSWVLLMKYLGNATAIFFLPDEGKLQHLENELTHDIITKFLENEDRRSASLHLPKLSITGTYDLKSVLGQLGITKVFSNGADLSGVTEEAPLKLSKAVHKAVLTIDEKGTEAAGAVFLEAIPLSIPPEVKFNKPFVFLMIEQNTKSPLFMGKVVNPTQKGGSGGSGGSGGSGG[skipping about 600 residues]
B6: AAT-albumin fusion, base C232S, M351V, M358L with K168C/F189C/S283C/P361C (other)
chain: EDPQGDAAQKTDTSHHDQDHPTFNKITPNLAEFAFSLYRQLAHQSNSTNIFFSPVSIATAFAMLSLGTKADTHDEILEGLNFNLTEIPEAQIHEGFQELLRTLNQPDSQLQLTTGNGLFLSEGLKLVDKFLEDVKKLYHSEAFTVNFGDTEEAKKQINDYVEKGTQGCIVDLVKELDRDTVFALVNYICFKGKWERPFEVKDTEEEDFHVDQVTTVKVPMMKRLGMFNIQHSKKLSSWVLLMKYLGNATAIFFLPDEGKLQHLENELTHDIITKFLENEDRRCASLHLPKLSITGTYDLKSVLGQLGITKVFSNGADLSGVTEEAPLKLSKAVHKAVLTIDEKGTEAAGAVFLEAIPLSICPEVKFNKPFVFLMIEQNTKSPLFMGKVVNPTQKGGSGGSGGSGGSGG[skipping about 600 residues]
B7: AAT-albumin fusion, base C232S, M351V, M358L with S283C/P361C (other)
chain: EDPQGDAAQKTDTSHHDQDHPTFNKITPNLAEFAFSLYRQLAHQSNSTNIFFSPVSIATAFAMLSLGTKADTHDEILEGLNFNLTEIPEAQIHEGFQELLRTLNQPDSQLQLTTGNGLFLSEGLKLVDKFLEDVKKLYHSEAFTVNFGDTEEAKKQINDYVEKGTQGKIVDLVKELDRDTVFALVNYIFFKGKWERPFEVKDTEEEDFHVDQVTTVKVPMMKRLGMFNIQHSKKLSSWVLLMKYLGNATAIFFLPDEGKLQHLENELTHDIITKFLENEDRRCASLHLPKLSITGTYDLKSVLGQLGITKVFSNGADLSGVTEEAPLKLSKAVHKAVLTIDEKGTEAAGAVFLEAIPLSICPEVKFNKPFVFLMIEQNTKSPLFMGKVVNPTQKGGSGGSGGSGGSGG[skipping about 600 residues]
B8: PP12292-J1354 C232S, M351V, M358L (mutant AAT-linker-albumin fusion) (other)
chain: EDPQGDAAQKTDTSHHDQDHPTFNKITPNLAEFAFSLYRQLAHQSNSTNIFFSPVSIATAFAMLSLGTKADTHDEILEGLNFNLTEIPEAQIHEGFQELLRTLNQPDSQLQLTTGNGLFLSEGLKLVDKFLEDVKKLYHSEAFTVNFGDTEEAKKQINDYVEKGTQGKIVDLVKELDRDTVFALVNYIFFKGKWERPFEVKDTEEEDFHVDQVTTVKVPMMKRLGMFNIQHSKKLSSWVLLMKYLGNATAIFFLPDEGKLQHLENELTHDIITKFLENEDRRSASLHLPKLSITGTYDLKSVLGQLGITKVFSNGADLSGVTEEAPLKLSKAVHKAVLTIDEKGTEAAGAVFLEAIPLSIPPEVKFNKPFVFLMIEQNTKSPLFMGKVVNPTQKGGSGGSGGSGGSGG[skipping about 600 residues]
B9: AAT-albumin fusion, base C232S, M351V, M358L with K335A (other)
chain: EDPQGDAAQKTDTSHHDQDHPTFNKITPNLAEFAFSLYRQLAHQSNSTNIFFSPVSIATAFAMLSLGTKADTHDEILEGLNFNLTEIPEAQIHEGFQELLRTLNQPDSQLQLTTGNGLFLSEGLKLVDKFLEDVKKLYHSEAFTVNFGDTEEAKKQINDYVEKGTQGKIVDLVKELDRDTVFALVNYIFFKGKWERPFEVKDTEEEDFHVDQVTTVKVPMMKRLGMFNIQHSKKLSSWVLLMKYLGNATAIFFLPDEGKLQHLENELTHDIITKFLENEDRRSASLHLPKLSITGTYDLKSVLGQLGITKVFSNGADLSGVTEEAPLKLSKAVHAAVLTIDEKGTEAAGAVFLEAIPLSIPPEVKFNKPFVFLMIEQNTKSPLFMGKVVNPTQKGGSGGSGGSGGSGG[skipping about 600 residues]
B10: AAT-albumin fusion, base C232S, M351V, M358L with K331F (other)
chain: EDPQGDAAQKTDTSHHDQDHPTFNKITPNLAEFAFSLYRQLAHQSNSTNIFFSPVSIATAFAMLSLGTKADTHDEILEGLNFNLTEIPEAQIHEGFQELLRTLNQPDSQLQLTTGNGLFLSEGLKLVDKFLEDVKKLYHSEAFTVNFGDTEEAKKQINDYVEKGTQGKIVDLVKELDRDTVFALVNYIFFKGKWERPFEVKDTEEEDFHVDQVTTVKVPMMKRLGMFNIQHSKKLSSWVLLMKYLGNATAIFFLPDEGKLQHLENELTHDIITKFLENEDRRSASLHLPKLSITGTYDLKSVLGQLGITKVFSNGADLSGVTEEAPLKLSFAVHKAVLTIDEKGTEAAGAVFLEAIPLSIPPEVKFNKPFVFLMIEQNTKSPLFMGKVVNPTQKGGSGGSGGSGGSGG[skipping about 600 residues]

Experiments:
[1] = biological target: T1, human neutrophil elastase; test: cell-based or functional assay
[2] = biological target: T1, human neutrophil elastase; test: cell-based or functional assay; remark: listed apart in the source

Row | Binder | IC50 (nM), neutrophil elastase inhibitory assay [1] | IC50 (nM), neutrophil elastase inhibitory assay [2]
1 | B1 | 20.1 nM | 
2 | B2 | 23.3 nM | 
3 | B3 | 23.5 nM | 
4 | B4 | 28 nM | 
5 | B5 | 29.1 nM | 
6 | B6 | 35 nM | 
7 | B7 | 41.7 nM | 
8 | B8 |  | 34.5 nM
9 | B9 | 5.96 nM | 
10 | B10 | 7.05 nM | 
